For assay [1], the target named is T1, Ebp1, endogenous approximately 50 kDa protein in AU565 cells (human (endogenous in AU565)) (UniProt Q9UQ80).
T1 sequence: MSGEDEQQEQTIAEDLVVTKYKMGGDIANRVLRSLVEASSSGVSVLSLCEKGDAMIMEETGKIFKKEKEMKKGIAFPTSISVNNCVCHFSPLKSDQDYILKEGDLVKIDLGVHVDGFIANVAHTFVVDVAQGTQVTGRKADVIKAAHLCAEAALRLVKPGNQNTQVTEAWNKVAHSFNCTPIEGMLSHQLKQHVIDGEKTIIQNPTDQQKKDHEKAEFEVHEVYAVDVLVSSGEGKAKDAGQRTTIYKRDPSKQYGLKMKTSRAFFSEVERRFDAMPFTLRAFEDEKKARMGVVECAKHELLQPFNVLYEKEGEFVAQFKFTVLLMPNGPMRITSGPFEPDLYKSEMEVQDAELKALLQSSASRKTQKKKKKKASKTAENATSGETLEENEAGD
Kind of assay: co-IP; AU565 cell lysates in RIPA buffer, endogenous proteins; immunoprecipitated with anti-ErbB-3 (C-17), anti-ErbB-2 or anti-GST-EBP1 antibody, rabbit IgG as control; immunoblotting. Background: In western blotting, separated proteins are transferred to a membrane and probed.

Chains of the proteins cited; added tags and fusions are not shown. Residues count along the entry.
UniProt P21860, residues 20-1342: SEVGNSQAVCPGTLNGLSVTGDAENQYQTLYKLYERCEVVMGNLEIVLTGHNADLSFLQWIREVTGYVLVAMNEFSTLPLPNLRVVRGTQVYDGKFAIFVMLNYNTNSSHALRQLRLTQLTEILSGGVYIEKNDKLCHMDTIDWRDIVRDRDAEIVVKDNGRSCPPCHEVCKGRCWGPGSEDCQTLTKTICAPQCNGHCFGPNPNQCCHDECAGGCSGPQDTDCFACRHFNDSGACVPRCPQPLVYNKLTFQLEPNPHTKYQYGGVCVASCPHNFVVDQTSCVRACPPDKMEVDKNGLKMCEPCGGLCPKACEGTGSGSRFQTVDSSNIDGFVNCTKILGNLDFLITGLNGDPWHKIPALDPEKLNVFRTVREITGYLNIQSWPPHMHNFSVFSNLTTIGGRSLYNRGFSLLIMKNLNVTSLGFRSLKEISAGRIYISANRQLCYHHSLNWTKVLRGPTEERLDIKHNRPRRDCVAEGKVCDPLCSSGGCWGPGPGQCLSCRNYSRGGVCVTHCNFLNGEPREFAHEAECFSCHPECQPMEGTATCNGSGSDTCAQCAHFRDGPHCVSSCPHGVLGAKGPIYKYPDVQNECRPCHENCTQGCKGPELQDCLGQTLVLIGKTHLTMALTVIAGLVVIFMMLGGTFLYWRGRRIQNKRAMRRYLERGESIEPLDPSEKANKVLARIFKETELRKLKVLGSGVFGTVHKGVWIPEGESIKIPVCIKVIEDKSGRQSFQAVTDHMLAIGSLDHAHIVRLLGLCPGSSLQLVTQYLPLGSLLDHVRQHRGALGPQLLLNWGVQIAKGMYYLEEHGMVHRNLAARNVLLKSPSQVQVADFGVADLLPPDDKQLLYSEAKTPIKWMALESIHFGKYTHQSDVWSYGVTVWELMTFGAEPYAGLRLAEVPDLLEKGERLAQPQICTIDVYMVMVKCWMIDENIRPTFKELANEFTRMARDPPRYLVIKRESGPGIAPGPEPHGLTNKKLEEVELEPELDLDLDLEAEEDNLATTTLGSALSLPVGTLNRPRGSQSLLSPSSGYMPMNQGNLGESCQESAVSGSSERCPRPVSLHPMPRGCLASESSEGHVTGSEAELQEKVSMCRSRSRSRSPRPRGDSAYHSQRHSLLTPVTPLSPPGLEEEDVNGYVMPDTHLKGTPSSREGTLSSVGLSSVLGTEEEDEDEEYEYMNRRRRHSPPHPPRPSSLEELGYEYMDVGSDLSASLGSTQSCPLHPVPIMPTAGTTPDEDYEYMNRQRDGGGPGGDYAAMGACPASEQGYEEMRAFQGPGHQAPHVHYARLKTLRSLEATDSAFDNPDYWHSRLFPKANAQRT

For assay [2], the target named is T2, 35S-labelled in vitro translation product of pBK/Ebp1 (amino acids 1-373 of Ebp1) (human) (UniProt Q9UQ80).
T2 sequence (chain, 35S-labelled): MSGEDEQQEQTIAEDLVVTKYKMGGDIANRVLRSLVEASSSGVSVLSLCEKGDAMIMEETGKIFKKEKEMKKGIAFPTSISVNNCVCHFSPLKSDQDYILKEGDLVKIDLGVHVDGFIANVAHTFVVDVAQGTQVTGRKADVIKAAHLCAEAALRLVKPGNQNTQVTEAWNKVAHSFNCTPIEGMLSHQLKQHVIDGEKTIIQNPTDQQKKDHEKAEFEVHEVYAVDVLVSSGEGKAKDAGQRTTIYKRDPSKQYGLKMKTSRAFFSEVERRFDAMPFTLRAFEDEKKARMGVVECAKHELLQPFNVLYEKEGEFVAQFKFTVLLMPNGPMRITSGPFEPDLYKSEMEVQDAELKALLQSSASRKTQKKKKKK
Kind of assay: pull-down; competition: ErbB-3 peptide (aa 665-690) in 75- to 1000-fold excess against GST-ErbB-3 (aa 665-690) for in vitro translated 35S-Ebp1; the peptide as competitor; only the binder purified.

Assay [3] concerns the target ErbB-3, endogenous in AU565 cells (human (endogenous in AU565)) (UniProt P21860). Kind of assay: co-IP; AU565 cell lysates in RIPA buffer, endogenous proteins; immunoprecipitated with anti-ErbB-3 (C-17), anti-ErbB-2 or anti-GST-EBP1 antibody, rabbit IgG as control; immunoblotting.
Assay [4] has as its target ErbB-2, endogenous in AU565 cells (human (endogenous in AU565)) (UniProt P04626). The assay is described as above.
The target in assay [5] is Human EGFR expressed in NIH 3T3 cells (human) (UniProt P00533). Kind of assay: co-IP; NIH3T3 cells overexpressing human EGFR, transiently transfected with Flag-tagged Ebp1, 48 h; lysates immunoprecipitated with rabbit anti-EGFR antibody or rabbit IgG; blotted with anti-Flag (M2) and anti-EGFR.

No constants are given. Whether binding was seen depends on the method and setting. Binding seen in cells or lysates may run through a third protein. Some binding calls cover weakened binding; strength is not graded here. For some assays here: Where a sequence is shown, tags or fusion partners need not be part of it.

Consider “ErbB-3, endogenous in AU565 cells (from UniProt P21860 20-1342) (receptor)”, for which the binding entry in assay [1] is given as “binds”.

Take RGRRIQNKRAMRRYLERGESIEPLDP [ErbB-3 competing peptide (aa 665-690)]: the binding entry in assay [2] is “binds”.

B1: Ebp1, endogenous approximately 50 kDa protein in AU565 cells (natural protein, human (endogenous in AU565), UniProt Q9UQ80 1-394, looked up)
chain: MSGEDEQQEQTIAEDLVVTKYKMGGDIANRVLRSLVEASSSGVSVLSLCEKGDAMIMEETGKIFKKEKEMKKGIAFPTSISVNNCVCHFSPLKSDQDYILKEGDLVKIDLGVHVDGFIANVAHTFVVDVAQGTQVTGRKADVIKAAHLCAEAALRLVKPGNQNTQVTEAWNKVAHSFNCTPIEGMLSHQLKQHVIDGEKTIIQNPTDQQKKDHEKAEFEVHEVYAVDVLVSSGEGKAKDAGQRTTIYKRDPSKQYGLKMKTSRAFFSEVERRFDAMPFTLRAFEDEKKARMGVVECAKHELLQPFNVLYEKEGEFVAQFKFTVLLMPNGPMRITSGPFEPDLYKSEMEVQDAELKALLQSSASRKTQKKKKKKASKTAENATSGETLEENEAGD
notes: Ebp1 (PA2G4), endogenous full-length protein of approximately 50 kDa in the human AU565 mammary carcinoma cell line; predicted protein of 394 amino acid residues; also called PA2G4; source: endogenous, AU565 lysate
Turning to B1, the binding entry is recorded as “binds” in assay [3] and “no binding” in assay [4].

B2: Flag-tagged Ebp1 (protein, UniProt Q9UQ80 1-394)
chain: MSGEDEQQEQTIAEDLVVTKYKMGGDIANRVLRSLVEASSSGVSVLSLCEKGDAMIMEETGKIFKKEKEMKKGIAFPTSISVNNCVCHFSPLKSDQDYILKEGDLVKIDLGVHVDGFIANVAHTFVVDVAQGTQVTGRKADVIKAAHLCAEAALRLVKPGNQNTQVTEAWNKVAHSFNCTPIEGMLSHQLKQHVIDGEKTIIQNPTDQQKKDHEKAEFEVHEVYAVDVLVSSGEGKAKDAGQRTTIYKRDPSKQYGLKMKTSRAFFSEVERRFDAMPFTLRAFEDEKKARMGVVECAKHELLQPFNVLYEKEGEFVAQFKFTVLLMPNGPMRITSGPFEPDLYKSEMEVQDAELKALLQSSASRKTQKKKKKKASKTAENATSGETLEENEAGD
Consider B2, for which the binding entry in assay [5] is recorded as “no binding”.

Source of the values: article PMC2363329, “Interaction of the PA2G4 (EBP1) protein with ErbB-3 and regulation of this binding by heregulin” (British Journal of Cancer, 2000).
